According to paper PMC4336329 (PLoS ONE, 2015):
Out of some 310,000 compounds screened, about 2,200 (0.71%) showed an effect of 50% or more. The effect is printed as a negative number. The list shows a part of the results.

target: human ether-à-go-go-related gene (hERG) potassium channel (human, UniProt Q12809); assay: primary screen, population patch clamp on CHO cells stably expressing hERG
Sequence (Q12809 whole entry, looked up): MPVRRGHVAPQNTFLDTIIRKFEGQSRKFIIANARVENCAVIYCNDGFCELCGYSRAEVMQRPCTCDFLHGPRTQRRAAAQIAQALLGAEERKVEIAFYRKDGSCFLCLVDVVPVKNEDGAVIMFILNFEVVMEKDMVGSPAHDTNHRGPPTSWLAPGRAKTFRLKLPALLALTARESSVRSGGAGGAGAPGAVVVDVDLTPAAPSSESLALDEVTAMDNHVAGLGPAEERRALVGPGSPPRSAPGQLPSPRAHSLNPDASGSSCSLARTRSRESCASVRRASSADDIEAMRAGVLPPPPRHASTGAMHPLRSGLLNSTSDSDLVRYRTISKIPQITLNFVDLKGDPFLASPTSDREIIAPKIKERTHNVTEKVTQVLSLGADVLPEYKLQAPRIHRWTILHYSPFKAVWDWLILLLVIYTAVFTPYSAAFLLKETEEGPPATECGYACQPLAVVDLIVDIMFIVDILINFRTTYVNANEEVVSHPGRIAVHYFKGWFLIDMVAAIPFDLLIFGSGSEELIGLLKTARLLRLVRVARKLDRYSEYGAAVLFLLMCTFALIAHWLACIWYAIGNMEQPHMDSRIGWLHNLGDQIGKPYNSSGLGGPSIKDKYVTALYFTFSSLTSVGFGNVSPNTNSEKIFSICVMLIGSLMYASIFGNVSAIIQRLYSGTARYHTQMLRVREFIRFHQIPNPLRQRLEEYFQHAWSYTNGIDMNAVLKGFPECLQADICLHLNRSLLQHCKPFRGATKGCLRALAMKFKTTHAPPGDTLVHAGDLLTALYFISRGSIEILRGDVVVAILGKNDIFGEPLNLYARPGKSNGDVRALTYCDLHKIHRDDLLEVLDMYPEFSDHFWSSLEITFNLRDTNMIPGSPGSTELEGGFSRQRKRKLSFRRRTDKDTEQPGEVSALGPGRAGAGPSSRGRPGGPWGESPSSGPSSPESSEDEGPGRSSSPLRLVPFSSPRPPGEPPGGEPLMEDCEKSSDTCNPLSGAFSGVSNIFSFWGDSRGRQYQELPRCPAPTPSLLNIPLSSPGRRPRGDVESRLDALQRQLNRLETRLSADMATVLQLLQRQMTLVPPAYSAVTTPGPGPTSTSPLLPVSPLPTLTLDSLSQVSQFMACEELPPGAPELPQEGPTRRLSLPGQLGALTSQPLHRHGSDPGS

Row | SMILES | hERG current change (%, negative = inhibition) at 1uM
1 | Cc1cc(-c2onc(C)c2C(N)=O)no1 | 12.7%
2 | N#Cc1ccccc1Sc1ccccc1C(=O)OCC(N)=O | 13.9%
3 | COc1ccc(Cn2ccnc2SCC(=O)Nc2ccccc2F)cc1 | 15.6%
4 | Cc1cc(OCc2cc(C(=O)NCCN3CCCCC3CO)no2)cc(C)c1Cl (stereo not drawn) | -7.06%
5 | C/C(=C\C(=O)c1ccc(Br)cc1)N1CCCCC1 | 5.38%
6 | CCN(CC)S(=O)(=O)c1ccc(OC(C)C)c(N)c1 | -1.66%
7 | O=C(CN(c1ccc(F)cc1)S(=O)(=O)c1ccccc1)NCc1ccco1 | 18.5%
8 | CSc1ccc(CN(C)C(=O)c2cc(=O)c3ccccc3o2)cc1 | -23%
9 | O=C(NC1CCCCC1)N1CCCCCC1 | 6.21%
10 | Cc1sc2nc(CSC(C)C(=O)Nc3ccc(C(N)=O)cc3)[nH]c(=O)c2c1C (stereo not drawn) | 7.08%
11 | CC(C)C(=O)NNS(=O)(=O)c1ccccc1 | 15.7%
12 | COc1cc(/C=C/C(=O)OCC(=O)N2c3ccccc3NC(=O)C2(C)C)cc(OC)c1OC | 3.14%
13 | O=C1CCCC(O)=C1N=Nc1ccc2c(c1)OCO2 | 6.26%
14 | Cc1cc(C)c(S(=O)(=O)N2CCOCC2)cc1C | 11.3%
15 | COc1ccc(Cl)cc1NC(=O)C1CCCO1 (stereo not drawn) | 7.19%
16 | Cc1ccccc1C(=O)NC1CCN(CC(=O)NCc2ccc(F)cc2)CC1 | -31.6%
17 | CCCC(C)C(=O)Nc1nc(C)c(-c2csc(Nc3ccc(Cl)cc3)n2)s1 (stereo not drawn) | 7.95%
18 | Cc1ccc(O)c(N=Cc2ccc(C)s2)c1 | 6.42%
19 | O=C(CSc1ncn[nH]1)Nc1nnc(-c2ccccc2)s1 | 6%
20 | COc1ccc(CCNC(=O)c2ccc3c(=O)n(Cc4ccco4)c(=S)[nH]c3c2)cc1OC | 13.6%
21 | CCc1ccc(N2C(=O)c3sc4nnc(-c5ccccc5)c(=O)n4c3C2=O)cc1 | 7.96%
22 | CCCC(c1nnnn1Cc1cccs1)N1CCN(c2ccc(OC)cc2)CC1 (stereo not drawn) | 12%
23 | Cn1c(=O)n(C)c2cc(/C=C3/SC(=O)N(CC(=O)N4CCOCC4)C3=O)ccc21 | -0.578%

Row | SMILES | hERG current change (%, negative = inhibition) at 1uM
24 | CC(Oc1ccc(-c2nnco2)cc1)C(=O)N1CCOCC1 (stereo not drawn) | 17.5%
25 | CC(=O)Nc1ccc(S(=O)(=O)Nc2ccc(S(=O)(=O)Nc3nccs3)cc2)cc1 | 16.4%
26 | Cc1cccc(C)c1NCC(=O)N1CCN(Cc2ccccc2)CC1.Cl | 10.6%
27 | Cl.NCCC(=O)N1c2ccccc2Sc2ccc(Cl)cc21 | -1.47%
28 | Cc1cc(C)c(C#N)c(SCC(=O)CC(=O)OC(C)C)n1 | 5.61%
29 | CCc1cccc(C)c1NC(=S)NCc1cccn1C | 6.34%
30 | Cc1ccnc(NS(=O)(=O)c2ccc(N=Cc3c(O)n(C)c(=O)n(C)c3=O)cc2)n1 | 6.72%
31 | CC(C)c1c(C(=O)N/N=C2\CCc3ccccc32)nnn1-c1nonc1N | 15.4%
32 | Br.Cc1ccc2nc(-c3ccc(N4C(=N)SC5CS(=O)(=O)CC54)cc3)sc2c1 (stereo not drawn) | 9.31%
33 | CC1(C)CC(=O)C2=C(C1)OC(N)=C(C#N)C2c1ccccc1[N+](=O)[O-] (stereo not drawn) | -12.5%
34 | O=C(c1cccc2ccccc12)C1CCCN(Cc2ccon2)C1 (stereo not drawn) | 2.29%
35 | CCCCNC(=O)c1onc(CSc2ccc(C)c(C)c2)c1C(=O)O | 16.8%
36 | COc1cccc(/C=C/C(=O)OCC(=O)c2ccc(S(=O)(=O)N3CCCCC3)cc2)c1OC | 12.6%
37 | CCC(C)(C)NC(=O)C(c1ccco1)N(C(=O)Cn1nnc2ccccc21)c1ccc2c(c1)OCO2 (stereo not drawn) | 13.9%
38 | O=S(=O)(c1cccc2nonc12)N1CCCCC1 | 14.1%
39 | Cl.NC(Cc1nc2ccccc2[nH]1)c1ccc(Cl)cc1 (stereo not drawn) | -0.346%
40 | CCNc1cc(Cl)nc(SC)n1 | -3.26%
41 | Cc1ccc(S(=O)(=O)NC2=NCN(CCOC(=O)c3ccccc3)CN2)cc1 | 1.5%
42 | O=C(CCCNc1ccccc1)N/N=C/c1cccs1 | 14%
43 | CC1(C(=O)NC2CCCC2)CCC(=O)N1CCC1=CCCCC1 (stereo not drawn) | 10.3%
44 | Cc1c(CCC(=O)NCCCn2ccnc2)c(=O)oc2c(C)c3occ(C(C)(C)C)c3cc12 | -24.7%
45 | COc1ccc(CC(=O)NC(C)(C)C)cc1S(=O)(=O)N1CCOCC1 | 14.8%
